In the supplement of paper PMC8728848:
This is one part of the list.

Experiments:
Assay in all cases: glycan array binding signal (z-score within array); higher = stronger binding
Details in all cases: glycan notation: IUPAC condensed, linker removed
[1] = target: Fuc(a1-3)GlcNAc
Method in brief: (§1)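 The Consortium for Functional Glycomics database supplied 3228 glycan arrays, of which those lacking an available protein sequence were dropped. The binding signal, a within-array Z-score, was averaged across arrays of the same protein sequence and across linkers. Negative scores can be read as non-binding.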

[2] = target: Fuc(a1-3)[Gal(b1-4)]Glc6S
Method in brief: as §1

[3] = target: Fuc(a1-3)[Gal(b1-4)]GlcNAc
Method in brief: as §1

[4] = target: Fuc(a1-3)[Gal(b1-4)]GlcNAc(b1-2)Man
Method in brief: as §1

[5] = target: Fuc(a1-3)[Gal(b1-4)]GlcNAc(b1-2)Man(a1-3)[Fuc(a1-3)[Gal(b1-4)]GlcNAc(b1-2)Man(a1-6)]Man(b1-4)GlcNAc(b1-4)GlcNAc
Method in brief: as §1

[6] = target: Fuc(a1-3)[Gal(b1-4)]GlcNAc(b1-2)Man(a1-3)[Fuc(a1-3)[Gal(b1-4)]GlcNAc(b1-2)Man(a1-6)]Man(b1-4)GlcNAc(b1-4)[Fuc(a1-6)]GlcNAc
Method in brief: as §1

[7] = target: Fuc(a1-3)[Gal(b1-4)]GlcNAc(b1-3)Gal(b1-3)[Fuc(a1-4)]GlcNAc
Method in brief: as §1

[8] = target: Fuc(a1-3)[Gal(b1-4)]GlcNAc(b1-3)Gal(b1-4)[Fuc(a1-3)]GlcNAc
Method in brief: as §1

[9] = target: Fuc(a1-3)[Gal(b1-4)]GlcNAc(b1-3)Gal(b1-4)[Fuc(a1-3)]GlcNAc(b1-3)Gal(b1-4)[Fuc(a1-3)]GlcNAc
Method in brief: as §1

[10] = target: Fuc(a1-3)[Gal(b1-4)]GlcNAc(b1-3)GalNAc
Method in brief: as §1

[11] = target: Fuc(a1-3)[Gal(b1-4)]GlcNAc(b1-6)GalNAc
Method in brief: as §1

[12] = target: Fuc(a1-3)[Gal(b1-4)]GlcNAc(b1-6)[Gal(b1-3)GlcNAc(b1-3)]Gal(b1-4)Glc
Method in brief: as §1

[13] = target: Fuc(a1-3)[Gal(b1-4)]GlcNAc6S
Method in brief: as §1

[14] = target: Fuc(a1-3)[Gal3S(b1-4)]Glc
Method in brief: as §1

[15] = target: Fuc(a1-3)[Gal3S(b1-4)]GlcNAc
Method in brief: as §1

[16] = target: Fuc(a1-3)[Gal3S(b1-4)]GlcNAc6S
Method in brief: as §1

[17] = target: Fuc(a1-3)[GalNAc(b1-4)]GlcNAc
Method in brief: as §1

[18] = target: Fuc(a1-3)[GalNAc(b1-4)]GlcNAc6S
Method in brief: as §1

[19] = target: Fuc(a1-4)GlcNAc
Method in brief: as §1

[20] = target: Fuc(b1-3)GlcNAc
Method in brief: as §1

[21] = target: Gal(a1-2)Gal
Method in brief: as §1

[22] = target: Gal(a1-3)Gal
Method in brief: as §1

[23] = target: Gal(a1-3)Gal(b1-3)GlcNAc
Method in brief: as §1

[24] = target: Gal(a1-3)Gal(b1-3)GlcNAc(b1-2)Man
Method in brief: as §1

[25] = target: Gal(a1-3)Gal(b1-3)GlcNAc(b1-2)Man(a1-3)[Gal(a1-3)Gal(b1-3)GlcNAc(b1-2)Man(a1-6)]Man(b1-4)GlcNAc(b1-4)GlcNAc
Method in brief: as §1

[26] = target: Gal(a1-3)Gal(b1-3)GlcNAc(b1-3)GalNAc
Method in brief: as §1

[27] = target: Gal(a1-3)Gal(b1-3)GlcNAc(b1-6)GalNAc
Method in brief: as §1

[28] = target: Gal(a1-3)Gal(b1-3)[Fuc(a1-4)]GlcNAc(b1-2)Man(a1-3)[Gal(a1-3)Gal(b1-3)[Fuc(a1-4)]GlcNAc(b1-2)Man(a1-6)]Man(b1-4)GlcNAc(b1-4)GlcNAc
Method in brief: as §1

[29] = target: Gal(a1-3)Gal(b1-4)Glc
Method in brief: as §1

[30] = target: Gal(a1-3)Gal(b1-4)GlcNAc
Method in brief: as §1

[31] = target: Gal(a1-3)Gal(b1-4)GlcNAc(b1-2)Man
Method in brief: as §1

[32] = target: Gal(a1-3)Gal(b1-4)GlcNAc(b1-2)Man(a1-3)[Gal(a1-3)Gal(b1-4)GlcNAc(b1-2)Man(a1-6)]Man(b1-4)GlcNAc(b1-4)GlcNAc
Method in brief: as §1

[33] = target: Gal(a1-3)Gal(b1-4)GlcNAc(b1-3)GalNAc
Method in brief: as §1

[34] = target: Gal(a1-3)Gal(b1-4)GlcNAc(b1-6)GalNAc
Method in brief: as §1

[35] = target: Gal(a1-3)Gal(b1-4)[Fuc(a1-3)]GlcNAc
Method in brief: as §1

[36] = target: Gal(a1-3)Gal(b1-4)[Fuc(a1-3)]GlcNAc(b1-2)Man(a1-3)[Gal(a1-3)Gal(b1-4)[Fuc(a1-3)]GlcNAc(b1-2)Man(a1-6)]Man(b1-4)GlcNAc(b1-4)GlcNAc
Method in brief: as §1

[37] = target: Gal(a1-3)GalNAc
Method in brief: as §1

[38] = target: Gal(a1-3)[Gal(a1-4)]Gal(b1-4)GlcNAc
Method in brief: as §1

[39] = target: Gal(a1-4)Gal(b1-3)GlcNAc(b1-2)Man(a1-3)[Gal(a1-4)Gal(b1-3)GlcNAc(b1-2)Man(a1-6)]Man(b1-4)GlcNAc(b1-4)GlcNAc
Method in brief: as §1

[40] = target: Gal(a1-4)Gal(b1-4)Glc
Method in brief: as §1

[41] = target: Gal(a1-4)Gal(b1-4)GlcNAc
Method in brief: as §1

[42] = target: Gal(a1-4)Gal(b1-4)GlcNAc(b1-2)Man(a1-3)[Gal(a1-4)Gal(b1-4)GlcNAc(b1-2)Man(a1-6)]Man(b1-4)GlcNAc(b1-4)GlcNAc
Method in brief: as §1

[43] = target: Gal(a1-4)Gal(b1-4)GlcNAc(b1-3)Gal(b1-4)Glc
Method in brief: as §1

[44] = target: Gal(a1-4)GlcNAc
Method in brief: as §1

[45] = target: Gal(a1-6)Glc
Method in brief: as §1

B1: Thrombomodulin (Mus musculus) (protein)
chain: ALAKLQPTGSQCVEHECFALFQGPATFLDASQACQRLQGHLMTVRSSVAADVISLLLSQSSMDLGPWIGLQLPQGCDDPVHLGPLRGFQWVTGDNHTSYSRWARPNDQTAPLCGPLCVTVSTATEAAPGEPAWEEKPCETETQGFLCEFYFTASC
[1]
  glycan array binding signal (z-score): -0.027
[2]
  glycan array binding signal (z-score): 0.318
[3]
  glycan array binding signal (z-score): -0.053
[4]
  glycan array binding signal (z-score): -0.518
[5]
  glycan array binding signal (z-score): -0.108
[6]
  glycan array binding signal (z-score): -0.197
[7]
  glycan array binding signal (z-score): -0.58
[8]
  glycan array binding signal (z-score): -0.348
[9]
  glycan array binding signal (z-score): -0.183
[10]
  glycan array binding signal (z-score): -0.145
[11]
  glycan array binding signal (z-score): -0.091
[12]
  glycan array binding signal (z-score): -0.344
[13]
  glycan array binding signal (z-score): 0.478
[14]
  glycan array binding signal (z-score): -0.071
[15]
  glycan array binding signal (z-score): -0.161
[16]
  glycan array binding signal (z-score): -0.172
[17]
  glycan array binding signal (z-score): 0.256
[18]
  glycan array binding signal (z-score): -0.425
[19]
  glycan array binding signal (z-score): 3.52
[20]
  glycan array binding signal (z-score): -0.151
[21]
  glycan array binding signal (z-score): -0.043
[22]
  glycan array binding signal (z-score): -0.008
[23]
  glycan array binding signal (z-score): 4.59
[24]
  glycan array binding signal (z-score): 0.044
[25]
  glycan array binding signal (z-score): 0.13
[26]
  glycan array binding signal (z-score): 0.01
[27]
  glycan array binding signal (z-score): -0.107
[28]
  glycan array binding signal (z-score): 0.179
[29]
  glycan array binding signal (z-score): -0.137
[30]
  glycan array binding signal (z-score): -0.251
[31]
  glycan array binding signal (z-score): -0.4
[32]
  glycan array binding signal (z-score): -0.221
[33]
  glycan array binding signal (z-score): -0.121
[34]
  glycan array binding signal (z-score): -0.337
[35]
  glycan array binding signal (z-score): -0.285
[36]
  glycan array binding signal (z-score): 0.955
[37]
  glycan array binding signal (z-score): -0.154
[38]
  glycan array binding signal (z-score): 0.213
[39]
  glycan array binding signal (z-score): 0.037
[40]
  glycan array binding signal (z-score): 0.022
[41]
  glycan array binding signal (z-score): -0.003
[42]
  glycan array binding signal (z-score): 0.19
[43]
  glycan array binding signal (z-score): 0.076
[44]
  glycan array binding signal (z-score): -0.405
[45]
  glycan array binding signal (z-score): -0.306
